From the supplement of paper PMC8728848
The list shows a part of the results.

Columns and labels:
Assay in all cases: glycan array binding signal (z-score within array); higher = stronger binding
Conditions in all cases: glycan notation: IUPAC condensed, linker removed
[1] = molecular target: Man(a1-2)Man(a1-3)[Man(a1-2)Man(a1-6)]Man(a1-6)[Man(a1-2)Man(a1-2)Man(a1-3)]Man
Procedure, shortened: (§1)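 The binding signal is a Z-score computed within each array. Data were drawn from 3228 arrays in the Consortium for Functional Glycomics database, restricted to those with a known protein sequence. Scores were averaged over arrays of the same protein sequence at different concentrations or buffers, and over linkers, and negative values can be taken as non-binding.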

[2] = molecular target: Man(a1-2)Man(a1-3)[Man(a1-2)Man(a1-6)]Man(a1-6)[Man(a1-2)Man(a1-2)Man(a1-3)]Man(b1-4)GlcNAc(b1-4)GlcNAc
Procedure, shortened: as §1

[3] = molecular target: Man(a1-2)Man(a1-3)[Man(a1-6)]Man(a1-6)[Man(a1-2)Man(a1-3)]Man(b1-4)GlcNAc(b1-4)GlcNAc
Procedure, shortened: as §1

[4] = molecular target: Man(a1-2)Man(a1-6)[Man(a1-3)]Man(a1-6)[Man(a1-2)Man(a1-2)Man(a1-3)]Man
Procedure, shortened: as §1

[5] = molecular target: Man(a1-2)Man(a1-6)[Man(a1-3)]Man(a1-6)[Man(a1-2)Man(a1-2)Man(a1-3)]Man(b1-4)GlcNAc(b1-4)GlcNAc
Procedure, shortened: as §1

Man(a1-3)[Man(a1-6)]Man = molecular target: Man(a1-3)[Man(a1-6)]Man
Procedure, shortened: as §1

[6] = molecular target: Man(a1-3)[Man(a1-6)]Man(a1-6)[Man(a1-2)Man(a1-3)]Man(b1-4)GlcNAc(b1-4)GlcNAc
Procedure, shortened: as §1

[7] = molecular target: Man(a1-3)[Man(a1-6)]Man(a1-6)[Man(a1-3)]Man
Procedure, shortened: as §1

[8] = molecular target: Man(a1-3)[Man(a1-6)]Man(a1-6)[Man(a1-3)]Man(b1-4)GlcNAc(b1-4)GlcNAc
Procedure, shortened: as §1

[9] = molecular target: Man(a1-3)[Man(a1-6)]Man(b1-4)GlcNAc(b1-4)GlcNAc
Procedure, shortened: as §1

[10] = molecular target: Man(a1-3)[Man(a1-6)]Man(b1-4)GlcNAc(b1-4)[Fuc(a1-6)]GlcNAc
Procedure, shortened: as §1

Man(a1-6)Man = molecular target: Man(a1-6)Man
Procedure, shortened: as §1

Man(b1-4)GlcNAc = molecular target: Man(b1-4)GlcNAc
Procedure, shortened: as §1

MurNAc(b1-4)GlcNAc = molecular target: MurNAc(b1-4)GlcNAc
Procedure, shortened: as §1

Neu5Ac(a2-3)Gal = molecular target: Neu5Ac(a2-3)Gal
Procedure, shortened: as §1

[11] = molecular target: Neu5Ac(a2-3)Gal(b1-3)GalNAc
Procedure, shortened: as §1

[12] = molecular target: Neu5Ac(a2-3)Gal(b1-3)GalNAc(b1-3)Gal(a1-4)Gal(b1-4)Glc
Procedure, shortened: as §1

[13] = molecular target: Neu5Ac(a2-3)Gal(b1-3)GalNAc(b1-4)[Neu5Ac(a2-3)]Gal(b1-4)Glc
Procedure, shortened: as §1

[14] = molecular target: Neu5Ac(a2-3)Gal(b1-3)GalNAc(b1-4)[Neu5Ac(a2-8)Neu5Ac(a2-3)]Gal(b1-4)Glc
Procedure, shortened: as §1

[15] = molecular target: Neu5Ac(a2-3)Gal(b1-3)GalNAc6S
Procedure, shortened: as §1

[16] = molecular target: Neu5Ac(a2-3)Gal(b1-3)GlcNAc
Procedure, shortened: as §1

[17] = molecular target: Neu5Ac(a2-3)Gal(b1-3)GlcNAc(b1-2)Man
Procedure, shortened: as §1

[18] = molecular target: Neu5Ac(a2-3)Gal(b1-3)GlcNAc(b1-2)Man(a1-3)[GlcNAc(b1-4)][Neu5Ac(a2-3)Gal(b1-3)GlcNAc(b1-2)Man(a1-6)]Man(b1-4)GlcNAc(b1-4)GlcNAc
Procedure, shortened: as §1

[19] = molecular target: Neu5Ac(a2-3)Gal(b1-3)GlcNAc(b1-2)Man(a1-3)[Neu5Ac(a2-3)Gal(b1-3)GlcNAc(b1-2)Man(a1-6)]Man(b1-4)GlcNAc(b1-4)GlcNAc
Procedure, shortened: as §1

[20] = molecular target: Neu5Ac(a2-3)Gal(b1-3)GlcNAc(b1-3)Gal(b1-3)GlcNAc
Procedure, shortened: as §1

[21] = molecular target: Neu5Ac(a2-3)Gal(b1-3)GlcNAc(b1-3)Gal(b1-4)GlcNAc
Procedure, shortened: as §1

[22] = molecular target: Neu5Ac(a2-3)Gal(b1-3)GlcNAc(b1-3)GalNAc
Procedure, shortened: as §1

[23] = molecular target: Neu5Ac(a2-3)Gal(b1-3)GlcNAc(b1-4)Gal(b1-4)Glc
Procedure, shortened: as §1

[24] = molecular target: Neu5Ac(a2-3)Gal(b1-3)GlcNAc(b1-6)GalNAc
Procedure, shortened: as §1

[25] = molecular target: Neu5Ac(a2-3)Gal(b1-3)GlcNAc6S
Procedure, shortened: as §1

[26] = molecular target: Neu5Ac(a2-3)Gal(b1-3)[Fuc(a1-4)]GlcNAc
Procedure, shortened: as §1

[27] = molecular target: Neu5Ac(a2-3)Gal(b1-3)[Fuc(a1-4)]GlcNAc(b1-3)Gal(b1-3)[Fuc(a1-4)]GlcNAc
Procedure, shortened: as §1

[28] = molecular target: Neu5Ac(a2-3)Gal(b1-3)[Fuc(a1-4)]GlcNAc(b1-3)Gal(b1-4)[Fuc(a1-3)]GlcNAc
Procedure, shortened: as §1

[29] = molecular target: Neu5Ac(a2-3)Gal(b1-3)[GlcNAc(b1-6)]GalNAc
Procedure, shortened: as §1

[30] = molecular target: Neu5Ac(a2-3)Gal(b1-3)[Neu5Ac(a2-6)]GalNAc
Procedure, shortened: as §1

[31] = molecular target: Neu5Ac(a2-3)Gal(b1-3)[Neu5Ac(a2-6)]GlcNAc(b1-3)[Fuc(a1-3)[Gal(b1-4)]GlcNAc(b1-6)]Gal(b1-4)Glc
Procedure, shortened: as §1

[32] = molecular target: Neu5Ac(a2-3)Gal(b1-3)]Neu5Ac(a2-3)Gal(b1-4)]GlcNAc
Procedure, shortened: as §1

B1: SP15308A-bot-339-19-339 (Bacteroides ovatus) (protein)
chain: ACNNEWEDEQYEQYISFKSPIPAGGEGVTDIYVRYKEDGKVTYRLPIVVSGSTTNTLDREVHIAVDKDTLETLNIERFSIHRPGLWYTALEEDKYDFPKTVHISAGSSVEQLNIDFNLQGIDMLEKWVLPLTIVDDPSYNYKSHPRKNYAKALLRVIPFNNYSGSYTSSAMKVYTYINGKPDTNARTANKRTGYVINDNTVFFYAGLISEDLDKEVREKYKINVHFNEDGTLHMEQGDPTNKMKFELIGTPTYSKTSVMDATRPYLERRYVQIMFEYDFEDFSYGGNGVDVIPIKYKVEGSMTLQRNINTQIPDEDQQIEW
glycan array binding signal (z-score) [1]: 0.464 | glycan array binding signal (z-score) [2]: -0.19 | glycan array binding signal (z-score) [3]: -0.204 | glycan array binding signal (z-score) [4]: -0.563 | glycan array binding signal (z-score) [5]: -0.087 | glycan array binding signal (z-score) (Man(a1-3)[Man(a1-6)]Man): -0.441 | glycan array binding signal (z-score) [6]: 0.003 | glycan array binding signal (z-score) [7]: 0.018 | glycan array binding signal (z-score) [8]: -0.618 | glycan array binding signal (z-score) [9]: -0.053 | glycan array binding signal (z-score) [10]: -0.355 | glycan array binding signal (z-score) (Man(a1-6)Man): 0.306 | glycan array binding signal (z-score) (Man(b1-4)GlcNAc): 0.383 | glycan array binding signal (z-score) (MurNAc(b1-4)GlcNAc): -0.317 | glycan array binding signal (z-score) (Neu5Ac(a2-3)Gal): -0.314 | glycan array binding signal (z-score) [11]: 1.94 | glycan array binding signal (z-score) [12]: -0.171 | glycan array binding signal (z-score) [13]: -0.366 | glycan array binding signal (z-score) [14]: -0.26 | glycan array binding signal (z-score) [15]: -0.272 | glycan array binding signal (z-score) [16]: -0.033 | glycan array binding signal (z-score) [17]: -0.426 | glycan array binding signal (z-score) [18]: -0.338 | glycan array binding signal (z-score) [19]: -0.508 | glycan array binding signal (z-score) [20]: -0.321 | glycan array binding signal (z-score) [21]: 0.11 | glycan array binding signal (z-score) [22]: -0.085 | glycan array binding signal (z-score) [23]: -0.393 | glycan array binding signal (z-score) [24]: -0.333 | glycan array binding signal (z-score) [25]: 0.047 | glycan array binding signal (z-score) [26]: -0.073 | glycan array binding signal (z-score) [27]: -0.283 | glycan array binding signal (z-score) [28]: 0.438 | glycan array binding signal (z-score) [29]: -0.391 | glycan array binding signal (z-score) [30]: -0.446 | glycan array binding signal (z-score) [31]: -0.697 | glycan array binding signal (z-score) [32]: -0.238
